Laboratory results reported in PubChem BioAssay AID686970 (National Center for Advancing Translational Sciences (NCATS), 2013).
In all, about 360,000 compounds went through this assay and about 6,000 (1.7%) were called active. This list was built around the results that the source calls inconclusive (neither active nor inactive); the mix of calls is not that of the screen. Calls come from the whole dose curve; as a rule, active = well fitted cell-killing curve with a large enough effect; inconclusive = small, poorly fitted or top-dose-only effect, or effect the other way; inactive = flat fitted curve, though single readings scatter. No potency is given beside an inconclusive call; the fits are too rough.

Assay: qHTS for induction of synthetic lethality in tumor cells producing 2HG: qHTS for the HT-1080-NT fibrosarcoma cell line;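 note: NT is the 2HG producing partner of a matched IDH1 knockdown line; nearly all actives have a fitted effect of over 55% in size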;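 for activity, negative = less viability: 0% = DMSO-treated cells and -100% = media-only wells without cells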
Conditions: HT-1080-NT fibrosarcoma viability, CellTiter-Glo ATP luminescence, 48 h; activity, negative = less viability: at 46.1 µM (top of the series) unless noted
How it was run: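 Viability by CellTiter-Glo luminescence after 48 h compound exposure at 37C of HT-1080-NT cells (750/well, RPMI, 5% FBS). % activity scaled between DMSO wells and medium-only wells, then curve-fitted and categorized by curve class.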
Potency is the fitted concentration of half-maximal effect; tags give direction and shape of the fitted curve.

| Compound | Potency | activity, negative = less viability |
| --- | --- | --- |
| CCCCOc1ccc(C(C)NC(=O)CCS(=O)(=O)Cc2ccc(Cl)cc2)cc1 (stereo not drawn) | inconclusive [cytotoxic, single point] | – |
| Cc1cccc(-n2nc(C(=O)Nc3ccccc3)n3c(=O)cc(-c4ccccc4)nc23)c1 | inconclusive [rising, partial curve] | – |
| COc1cccc(NC(=O)CSc2nc3ccccc3c3nc4ccccc4n23)c1 | inconclusive [cytotoxic, partial curve] | – |
| Cc1ccc2[nH]c(=O)c(CN(CCCN(C)C)C(=S)NCCc3ccccc3)cc2c1 | active: 18.4 µM | – |
| CCc1nc2ccc(C(=O)NCCOc3ccc(OC)cc3)cn2c1N(CC)Cc1cccc(Br)c1 | inconclusive [cytotoxic, partial curve, poor fit] | – |
| CCCCN(CC)S(=O)(=O)c1ccc(C(=O)Nc2nnc(-c3cccs3)o2)cc1 | inconclusive [cytotoxic, full curve] | – |
| CCCNC(=O)C1(C)CCCN(C(=O)Cc2cccc(OC)c2)C1 (stereo not drawn) | – | inactive: -0.0683% |
| COc1cccc(-c2cnc3c(NC(C)=O)cc(-c4cccc(NS(C)(=O)=O)c4)cn23)c1 | inconclusive [cytotoxic, single point] | – |
| O=C(NCCc1ccccc1)C(=O)Nc1ccc2c(c1)OCCO2 | inconclusive [cytotoxic, single point] | – |
| CO/N=C\CC(=O)Nc1ccc(Oc2ccccc2)cc1 | inconclusive [cytotoxic, full curve] | – |
| O=C(NCC1CCCO1)C1CC(=O)N(c2ccccc2)C1 (stereo not drawn) | – | inactive: 14.5% |
| Cc1c(NC(=O)c2coc(=O)c(Br)c2)c(=O)n(-c2ccccc2)n1C | inconclusive [cytotoxic, single point] | – |
| O=C(O)c1cc(/C=C/c2ccc(N3CCOCC3)cc2)nc2ccccc12 | active: 23.1 µM | – |
| CC(C)(C)c1ccc(C(=O)N2CCC(=O)N(C(COCc3ccccc3)Cc3ccccc3)CC2)cc1 (stereo not drawn) | inconclusive [cytotoxic, single point] | – |
| Cc1ccc(SCCC(=O)N/N=C/c2ccccc2O)cc1 | – | inactive: -29.7% |
| COc1ccc(CN2[C@@H](CC(C)=O)c3ccc(/C=C/C(C)=O)cc3S2(=O)=O)cc1 | inconclusive [cytotoxic, single point] | – |
| C=CC[C@@H](CC(=O)N[C@@H](CO)Cc1ccccc1)C(=O)N[C@H](COC(=O)[C@@H](CC=C)CC(=O)OC(C)(C)C)Cc1c[nH]c2ccccc12 | inconclusive [cytotoxic, single point] | – |
| COc1cccc(-c2c(C(=O)N/N=C/c3sccc3C)nnn2-c2nonc2N)c1 | – | inactive: -10.3% |
| NC(=O)C1CCN(Cc2nc3cc(Cl)ccc3c(=O)[nH]2)CC1 | active: 20.6 µM | – |
| CC1CCN(CC(CS(=O)(=O)c2ccc([N+](=O)[O-])cc2)N2CCC(C)CC2)CC1 (stereo not drawn) | – | inactive: -2.59% |
| Cc1cccc(NC(=O)COC(=O)c2nn(-c3ccccc3C(F)(F)F)cc2O)c1C | – | inactive: 0.232% |
| O=S(=O)(c1ccc(Br)cc1)N1CCC(c2nc3ccccc3[nH]2)CC1 | inconclusive [cytotoxic, single point] | – |
| CCn1nc(C)c(Br)c1C(=O)Sc1ccccc1Cl | active: 16.4 µM | – |
| CCOC(=O)C1CCCN(C(=O)c2sc(-c3ccccc3)nc2C)CC1 (stereo not drawn) | inconclusive [rising, single point] | – |
| Nc1nc(CSc2nc3ccccc3[nH]2)nc(N2CCOCC2)n1 | – | inactive: 15.9% |

| Compound | Potency | activity, negative = less viability |
| --- | --- | --- |
| O=c1[nH]c2ccc(Cl)cc2c(-c2ccccc2)c1SC(=S)N1CCCCC1 | inconclusive [cytotoxic, partial curve] | – |
| N#Cc1c(NC(=O)CSc2nc3ccccc3s2)sc2c1CCCC2 | – | inactive: -1.37% |
| Oc1ccccc1C=NN=Cc1c(O)ccc2ccccc12 | – | inactive: -0.392% |
| CCN(c1ccccc1)S(=O)(=O)c1ccc(N2CCN(c3ccc(OC)cc3)CC2)nc1 | – | inactive: 0.741% |
| O=C(N/N=C/c1ccc([N+](=O)[O-])o1)c1cn2ccc3ccccc3c2n1 | – | inactive: -16.4% |
| C/C(=N\NC(=O)c1nnn(-c2nonc2N)c1CN(C)c1ccccc1)c1ccccc1O | inconclusive [cytotoxic, partial curve] | – |
| COc1c(C)cc(C(O)c2ncc(-c3ccc4ccccc4c3)[nH]2)cc1C (stereo not drawn) | inconclusive [cytotoxic, single point] | – |
| CCn1c(NCc2cc(OC)ccc2OC)nc2ccccc21 | – | inactive: -5.09% |
| CC1CN(Cc2c(O)ccc3c2oc(=O)c2ccccc23)CC(C)O1 (stereo not drawn) | inconclusive [cytotoxic, single point] | – |
| CC1=C/C(=N\OS(=O)(=O)c2ccccc2)C=CC1=O | active: 20 µM | – |
| COc1ccc(C(=O)NC2CCCc3ccccc32)cc1S(=O)(=O)N1CCOCC1 (stereo not drawn) | – | inactive: 10.2% |
| CCOc1ccc(Cc2c(Cl)nc(SC)nc2N(C)C)cc1 | inconclusive [cytotoxic, single point] | – |
| Nc1[nH]c(C(=O)c2ccccc2)c(-c2ccc(Cl)cc2)c1C(=O)NCCc1c[nH]c2ccccc12 | inconclusive [cytotoxic, single point] | – |
| O=C1N/C(=C/c2cccn2-c2ccc(F)cc2)C(=O)N1Cc1ccccc1 | inconclusive [cytotoxic, single point] | – |
| CN(C)c1ccc(NC(=O)CSc2nc3ccccc3c(=O)n2C2CCCCC2)cc1 | – | inactive: -0.985% |
| CCCCCC(=O)Nc1ccc(N2CCN(CC)CC2)c(Cl)c1 | inconclusive [cytotoxic, single point] | – |
| CC1=NN2C(=N)/C(=C\c3cc(C)n(Cc4ccccc4)c3C)C(=O)N=C2S1 | – | inactive: -4.47% |
| Cn1c(/C=N/NC(=O)c2ccccc2Br)nc2ccccc21 | inconclusive [cytotoxic, single point] | – |
| c1ccc(COc2cccc(-c3cc4nc(NCc5cccs5)ccn4n3)c2)cc1 | inconclusive [cytotoxic, partial curve] | – |
| CCOC(=O)COc1cccc2c(=O)n(CC(=O)NCc3ccccc3)ccc12 | active: 0.517 µM | – |
| O=C(Nc1ccc2c(c1)OCO2)Oc1ccccc1 | inconclusive [cytotoxic, single point] | – |
| O=C(CSc1nc2ccccc2s1)N/N=C/c1ccc(C(=O)O)cc1 | – | inactive: 0.397% |
| Cn1cccc1/C=C1\CCC/C(=C\c2cccn2C)C1=O | – | inactive: -8.81% |
| CCCc1nn(C)c(C(=O)Nc2ccc(Cl)cc2)c1Cl | – | inactive: -14.2% |
| Nc1nc2c(ncn2C2C[C@H](O)[C@@H](CO)O2)c(=O)[nH]1 (stereo partly drawn) | inconclusive [cytotoxic, single point] | – |

| Compound | Potency | activity, negative = less viability |
| --- | --- | --- |
| CN1CCN(c2cc(-c3ccc4ccccc4c3)nc3ccnn23)CC1 | inconclusive [rising, single point] | – |
| O=C1CSc2ccc(C(=O)NCCc3ccc(Cl)cc3Cl)cc2N1 | inconclusive [cytotoxic, single point] | – |
| Cc1ccc(-c2nnn(CC(=O)N(c3ccccc3F)C(C(=O)NC3CCCC3)c3ccncc3)n2)o1 (stereo not drawn) | inconclusive [cytotoxic, single point] | – |
| C#CCCc1cscc1/C=[N+](\[O-])c1ccc(C(=O)OCC)cc1 | – | inactive: -7.34% |
| O=C(Nc1ccccc1)c1cc(C2CCCN(C(=O)c3ccccc3)C2)on1 (stereo not drawn) | inconclusive [rising, single point] | – |
| OC[C@@H]1CN(Cc2ccco2)C[C@H](n2cnc3c(NCc4ccc(F)cc4)ncnc32)O1 | – | inactive: 17.9% |
| CCOC(=O)c1ccc(NC(=S)N(CCCN2CCCC(C)C2)Cc2ccco2)cc1 (stereo not drawn) | inconclusive [cytotoxic, single point] | – |
| Cc1cc(C)cc(C(=O)Nc2ccc(NC(=O)c3cccs3)cc2)c1 | inconclusive [cytotoxic, single point] | – |
| COCCNC(=S)N/N=C(\C)c1cccc(C(F)(F)F)c1 | – | inactive: 20.5% |
| Cc1nnc2c(SC(C)C)nc3ccccc3n12 | inconclusive [cytotoxic, single point] | – |
| S=c1[nH]nc(-c2ccco2)n1/N=C/C=C/c1ccco1 | – | inactive: 10.3% |
| CCNC1=C(Cl)C(=O)c2ccccc2C1=O | inconclusive [cytotoxic, single point] | – |
| CCCCS(=O)(=O)NC1=NCN(CCOC(=O)c2ccccc2)CN1 | – | inactive: 21.3% |
| COc1ccccc1Nc1ncc(C(=O)N2CCN(Cc3ccc(OC)c(OC)c3OC)CC2)c2ccccc12 | inconclusive [cytotoxic, single point] | – |
| Cc1ccc(CNC(=O)C2CCCCN2S(=O)(=O)c2ccccc2)cc1 (stereo not drawn) | – | inactive: -3.49% |
| Fc1ccccc1NC(=S)NC1CCCC1 | – | inactive: -2.07% |
| CCc1nc2c(OCc3cc(Cl)cc(Cl)c3)cccn2c1N(C)C(=O)CC(C)C | inconclusive [cytotoxic, single point] | – |
| C=CCNc1nc2ccccc2nc1NS(=O)(=O)c1ccc(Br)cc1 | inconclusive [cytotoxic, single point] | – |
| O=C(Nc1nc(-c2ccccn2)cs1)c1ccc(Br)s1 | active: 2 µM | – |
| C/C(=N\OCC(=O)NC12CC3CC(CC(C3)C1)C2)c1cc2ccccc2o1 | inconclusive [cytotoxic, single point] | – |
| O=C(c1ccco1)N1CCN(c2nc(C(F)(F)F)nc3c2nnn3Cc2ccccc2)CC1 | inconclusive [cytotoxic, single point] | – |
| CC1=C(C(=O)Nc2ccccc2C)C(c2ccc(C)o2)C2=C(CCCC2=O)N1 (stereo not drawn) | – | inconclusive: -18.9% [cytotoxic] |
| O=C(NCC(c1ccco1)N1CCc2ccccc21)C(=O)Nc1ccc(F)cc1F (stereo not drawn) | inconclusive [cytotoxic, partial curve] | – |
